From PubChem BioAssay AID1240 (Sanford-Burnham Center for Chemical Genomics, 2008) come the findings set out here.

Structures are written as SMILES. Values joined by “and” are separate entries in the source; they are usually repeats but may differ in a detail not shown here. Identical values can stand only once. The whole screen tested about 50,000 compounds, of which about 800 (1.6%) showed an effect of 50% or more. Some of the results follow.

The assay addresses Bcl-2-like protein 10 (Homo sapiens) (UniProt Q9HD36). The assay can be described thus: Phenotype converters, Bcl-B/TR3 peptide binding displacement, primary biochemical FP (AID 1240).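 Further: 0% = Bcl-B with tracer peptide and DMSO and 100% = tracer peptide lacking Bcl-B.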 To be noted: GST-Bcl-B / FITC-TR3 peptide fluorescence polarization; stronger effect = higher value; compound at 3.75 mg/L. Background: In fluorescence polarisation assays a small probe gives low polarisation when free and higher when bound to something large.
UniProt Q9HD36, sequence (Q9HD36 whole entry, looked up): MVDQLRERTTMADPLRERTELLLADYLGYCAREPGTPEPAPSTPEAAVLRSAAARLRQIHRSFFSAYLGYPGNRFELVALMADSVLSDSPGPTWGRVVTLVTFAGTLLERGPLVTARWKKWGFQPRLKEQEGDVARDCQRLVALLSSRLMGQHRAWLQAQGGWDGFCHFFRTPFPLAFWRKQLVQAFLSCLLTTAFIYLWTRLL
As for `CCC(N)C(=O)c1c(C)cc(C)cc1C` (configuration not stated), the displacement is -14.6%.
As for `COc1ccc(C(=O)c2ccc(N3CCNCC3)c(F)c2)cc1Br`, the displacement was -11%.
Regarding `COC(=O)c1cc(NC(C)=O)cc(Br)c1[N+](=O)[O-]`, the displacement was -10.7%.
Consider `CCc1ccc(CNCCc2ccccc2OC)cc1`, for which the displacement is -13.9%.
In the case of `Cc1ccccc1-n1c(=S)[nH]c2ccccc2c1=O` it was -11% and -8.7%; in that of `Cc1cc(OC(C)C(=O)O)c2c3c(c(=O)oc2c1)CCC3` (configuration not stated), 9.6%; in that of `CCC(=O)N(Cc1ccc(OC)c(OC)c1)C1CC(C)N(C)CC1C` (configuration not stated), -3.6%.
Regarding `C=CCc1cc(/C=C2/C(=O)NC(=O)N(C)C2=O)cc(OC)c1O`, the displacement is -6.6%.
As to `O=C(COc1ccc([N+](=O)[O-])cc1)Nc1ccc(Br)cc1C(=O)c1ccccc1`, the displacement is 4.7%.
In the case of `CCCCCn1c(=O)c(C(=O)Nc2ccccc2F)c(O)c2ccccc21` it was 3.6%.
As for `COC(=O)C1C2C(=O)N(c3ccccc3)C(=O)C12c1ccc(Cl)cc1` (configuration not stated), the displacement is -2.3%.
For the molecule `COC(=O)CCP(C)(=O)OCC(C)C` (configuration not stated), the displacement worked out at 16.4%.
Regarding `Cc1ccc(/C=C2/C(=O)NC(=O)N(c3ccc(C(C)C)cc3)C2=O)o1`, the displacement amounted to 49%.
In the case of `Cc1cc(/C=C2/C(=O)NC(=O)N(C)C2=O)c(C)n1-c1ccccc1`, the displacement amounted to 49.3%.
Take `COc1ccc(N2C(=O)NC(=O)/C(=C/c3ccc(-c4cccc(Cl)c4)o3)C2=O)cc1`: the displacement stood at 69%.
As for `CCOc1ccc(N2C(=O)NC(=O)/C(=C/c3ccc(C)cc3)C2=O)cc1`, the displacement was 0.8%.
`Cc1cc(OCC(=O)c2ccc(Cl)cc2)c2c3c(c(=O)oc2c1)CCC3`: the displacement was 8.3%.
For the molecule `COc1ccc(CN2CCN(C(=O)Cc3ccccc3)CC2)c(OC)c1OC`, the displacement is -13.4%.
To `COc1ccc(C2c3c(c4ccccc4oc3=O)Oc3c2c(=O)oc2ccccc32)cc1Cn1nc(C)c([N+](=O)[O-])c1C` belongs 14.2%; to `CCNc1cc2oc(=O)cc(C(F)(F)F)c2cc1C`, 105%; to `Cc1cc(OCc2ccc(F)cc2)c2c3c(c(=O)oc2c1)CCC3`, 6.5%.
As to `COc1cc(C(c2c(C)[nH]n(-c3ccccc3)c2=O)c2c(C)[nH]n(-c3ccccc3)c2=O)cc(OC)c1OC`, the displacement is -1.7%.
In the case of `CC12CCC(C/C1=N/O)C(C)(C)N2` (configuration not stated) it was 10.5%; in that of `COc1cccc(CN2CCN(Cc3cc(Br)ccc3O)CC2)c1`, 1.4%; in that of `O=C(COc1ccc(Cl)cc1)N1CCN(Cc2cccc([N+](=O)[O-])c2)CC1`, 15.3%.
To `N/C(=N\[N+](=O)[O-])N1CCN(C(=O)c2ccc(Cl)cc2)CC1` belongs 5%; to `O=[N+]([O-])N(CCCCN(CN1CCOCC1)[N+](=O)[O-])CN1CCOCC1`, -5.3%; to `O=C1CN(O)C(c2ccccc2Cl)=c2cc(Br)ccc2=N1`, -2.6%.
To `Cc1cccc(-n2c(/C=C\c3ccc(Cl)cc3)nc3ccccc3c2=O)c1` belongs -5.1%.
`CCC1(C)CC(CCNCc2ccc(OC)cc2)(c2ccc(OC)cc2)CCO1` (configuration not stated): the displacement worked out at 4.6%.
For `CN(C)c1ccc(C=C2C(=O)NC(=O)NC2=O)cc1[N+](=O)[O-]`, the displacement was -0.9%.
On to `O=[N+]([O-])c1ccc(NCCc2ccccc2)c2ncccc12`, for which the displacement was -1.2%.
Regarding `COc1cc(OC)c(OC)cc1CN1CCN(C(=O)Cc2ccccc2)CC1`, the displacement was -17.9%.
On to `O=Cc1cn(Cc2cccc3ccccc23)c2ccccc12`, for which the displacement was -2.4%.
Consider `Clc1ccc(OCCCn2ccnc2)cc1`, for which the displacement stood at 15.9%.
For the molecule `C=CCN1C(=O)/C(=C\C=C\c2ccco2)C(=O)NC1=S`, the displacement was -63.2%.
Regarding `O=C1NC(=O)N(Cc2ccccc2)C(=O)/C1=C\C=C\c1ccco1`, the displacement amounted to 11.3%.
As to `Cc1ccc(NC(=O)C(Cl)(Cl)Cl)cc1Cl`, the displacement is 8.5%.
Regarding `Cc1ccc(N2C(=O)NC(=O)/C(=C\C=C\c3ccccc3)C2=O)cc1`, the displacement worked out at 21.4%.
Consider `COc1cccc(CN2CCN(C(=O)Cc3ccccc3)CC2)c1OC`, for which the displacement came to 13.3%.
`Cc1ccc(-c2nc3ccccc3c(=O)n2-c2ccncc2)cc1`: the displacement is -3.6%.
In the case of `c1ccc2c(CNC34CC5CC(CC(C5)C3)C4)c[nH]c2c1`, the displacement is 7.8%.
With `Cc1ccc(-c2ccc(C=C3C(=O)NC(=S)NC3=O)o2)cc1[N+](=O)[O-]`, the displacement was 27.8%.
To `O=[N+]([O-])c1cccc(C2N3CCCN23)c1` (configuration not stated) belongs -1.2%; to `COc1ccccc1/C=C1/C(=O)C2CCN1CC2`, 8.7%.
For the molecule `COc1ccc(CCNCc2ccco2)cc1`, the displacement is -4.1%.
Turning to `CCCCOC(=O)COc1cc(C)cc2oc(=O)c3c(c12)CCC3`, the displacement was 9.5%.
Consider `Cc1ccc(N2C(=O)NC(=O)/C(=C\c3ccccc3OCc3ccc(C(=O)O)cc3)C2=O)cc1`, for which the displacement is -9.2%.
To `O=C1C(=Cc2ccc(-c3ccccc3[N+](=O)[O-])o2)C(=O)N(c2ccccc2)C(=S)N1c1ccccc1` belongs 16.4%.
Take `CC(C)OC(=O)N1CCN(/C(N)=N/[N+](=O)[O-])CC1`: the displacement was 9.5%.
Turning to `COc1ccc(CNCCc2cccc(Cl)c2)cc1OC`, the displacement was -4.2%.
With `COc1cccc(-n2c(/C=C/c3ccc(O)c(O)c3)nc3ccccc3c2=O)c1`, the displacement stood at 27.7%.
On to `Cc1cc(OCC(N)=O)c2c3c(c(=O)oc2c1)CCC3`, for which the displacement came out at 9.2%.
On to `COc1ccccc1-n1c(=S)[nH]c2ccccc2c1=O`, for which the displacement was -0.1%.
Take `N#CC(C#N)=Cc1cccc2ccccc12`: the displacement worked out at 5.7%.
Take `O=[N+]([O-])c1ccc(CCNC2CCCCC2)cc1`: the displacement was determined as 3.9%.
In the case of `Brc1ccc(CN2CCNCC2)cc1` it was -8.5%.
Take `CC(C)(C)c1cc(C=C2C(=O)NC(=S)NC2=O)cc(C(C)(C)C)c1O`: the displacement was -4.2%.
Turning to `CCOc1ccc(N2C(=O)NC(=O)/C(=C\c3ccc(C)o3)C2=O)cc1`, the displacement came to 11.6%.
To `COc1ccc(Br)cc1CN1CCN(Cc2ccc(F)cc2)CC1` belongs 13.7%.
Turning to `C=CCN1C(=O)NC(=O)C(=Cc2cccn2C)C1=O`, the displacement is 9.9%.
Regarding `O=[N+]([O-])c1ccc(CN2CCN(Cc3cccc(Br)c3)CC2)cc1`, the displacement is -12.8%.
In the case of `O=[N+]([O-])c1ccccc1CNCCc1ccc(F)cc1` it was 2.4%; in that of `Clc1ccccc1CNCCc1ccc2c(c1)OCO2`, -17.9%.
In the case of `CC(C)CCP(=O)(O)c1ccccc1` it was -9.8%; in that of `COc1cccc(CNCCc2ccc(Cl)cc2Cl)c1`, 2.7%.
As to `CN(C)c1ccc(/C=C/c2nc3ccc(I)cc3c(=O)n2-c2ccccc2)cc1`, the displacement was found to be 3.9%.
To `O=C(O)C1C2CCC(O2)C1C(=O)Nc1ccc(Cl)cc1` (configuration not stated) belongs 2.1%; to `Cc1ccc(N=Cc2c(O)n(C)c(=O)n(C)c2=O)cc1`, 0.5%.
As for `O=C(O)[C@H]1C2CCCCC2=C2CCCCC2[C@@H]1c1ccccc1` (some centres not stated), the displacement was -0.7%.
For `N#CC(C#N)=Cc1cc([N+](=O)[O-])ccc1Cl`, the displacement is -15%.
Regarding `N/C(=N\[N+](=O)[O-])N/N=C\c1ccc(-c2ccc([N+](=O)[O-])cc2)o1`, the displacement is -1.4%.
